Among the data in publication PMC12820563, “FoxP3 forms a head-to-head dimer in vivo and stabilizes its multimerization on adjacent microsatellites” are binding signal values, retold here.

The list shows a part of the results.

For the assay, the target named is T1, MBP-FoxP1dN (Mus musculus, UniProt P58462 326-579).
T1 sequence: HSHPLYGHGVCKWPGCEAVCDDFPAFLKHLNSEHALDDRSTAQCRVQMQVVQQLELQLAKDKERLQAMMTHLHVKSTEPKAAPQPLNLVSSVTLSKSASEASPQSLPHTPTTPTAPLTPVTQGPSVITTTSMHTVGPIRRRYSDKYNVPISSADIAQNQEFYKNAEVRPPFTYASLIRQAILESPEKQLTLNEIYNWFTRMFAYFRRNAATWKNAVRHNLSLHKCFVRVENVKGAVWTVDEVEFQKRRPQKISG
Briefly: PD-seq (MBP pull-down with sequencing); 20 mM Tris-HCl pH 7.5, 100 mM NaCl, 1.5 mM MgCl2, 0.4 uM protein, 0.1 uM dsDNA library, 30 min, room temperature, amylose pull-down; high values mean tight binding. As to conditions: protein: recombinant; tags: His6-MBP; chain copies: 2; dsDNA, one strand shown. The method in brief:
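E. coli-expressed mouse FoxP3 or FoxP1 fragment, N-terminus removed and tagged with His6-MBP, was used at 0.4 µM against 0.1 µM of a Klenow-filled degenerate double-stranded DNA library. After 30 min at room temperature in Tris pH 7.5 buffer with NaCl and MgCl2, complexes were pulled down on amylose resin and washed three times. Binding is pull-down over input reads-per-million enrichment from pooled replicates of the proteinase K-released, PCR-barcoded, Illumina-sequenced DNA.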
Regarding “GATGATTGTTCTCCCAGCTGATGAATTACGGGCATCGAGTAAACAAATTTTCCTAATCTTTCTGTTCAAGCGCCATCTAC”, the binding signal is 1.11 RPM ratio (pull-down/input). Then “GATGATTGTTCTCCCAGCTGATGAATTGCCACGGTCGAGTAAACAAATTTTCCTAATCTTTCTGTTCAAGCGCCATCTAC”, with 0.928 RPM ratio (pull-down/input); and “GATGATTGTTCTCCCAGCTGATGAATTGCTTCCCTCGAGTAAACAAATTTTCCTAATCTTTCTGTTCAAGCGCCATCTAC”, with 1.03 RPM ratio (pull-down/input). As for “GATGATTGTTCTCCCAGCTGATGAATTAGTTGGGTCGAGTAAACAAATTTTCCTAATCTTTCTGTTCAAGCGCCATCTAC”, the binding signal is 0.908 RPM ratio (pull-down/input). For the sequence “GATGATTGTTCTCCCAGCTGATGAATTTCCAATGTCGAGTAAACAAATTTTCCTAATCTTTCTGTTCAAGCGCCATCTAC”, the binding signal was 0.862 RPM ratio (pull-down/input).

As for “GATGATTGTTCTCCCAGCTGATGAATTACTCGTTTCGAGTAAACAAATTTTCCTAATCTTTCTGTTCAAGCGCCATCTAC”, the binding signal is 0.959 RPM ratio (pull-down/input).

On to “GATGATTGTTCTCCCAGCTGATGAATTCACTTCATCGAGTAAACAAATTTTCCTAATCTTTCTGTTCAAGCGCCATCTAC”, for which the binding signal is 0.896 RPM ratio (pull-down/input). With “GATGATTGTTCTCCCAGCTGATGAATTTTCGTCATCGAGTAAACAAATTTTCCTAATCTTTCTGTTCAAGCGCCATCTAC”, the binding signal is 1.12 RPM ratio (pull-down/input). As for “GATGATTGTTCTCCCAGCTGATGAATTTTTCTGCTCGAGTAAACAAATTTTCCTAATCTTTCTGTTCAAGCGCCATCTAC”, the binding signal is 0.893 RPM ratio (pull-down/input). “GATGATTGTTCTCCCAGCTGATGAATTGCTAACTTCGAGTAAACAAATTTTCCTAATCTTTCTGTTCAAGCGCCATCTAC”: the binding signal is 1.17 RPM ratio (pull-down/input). As for “GATGATTGTTCTCCCAGCTGATGAATTGCTCGGATCGAGTAAACAAATTTTCCTAATCTTTCTGTTCAAGCGCCATCTAC”, the figure is 0.91 RPM ratio (pull-down/input); as for “GATGATTGTTCTCCCAGCTGATGAATTGCTAGAATCGAGTAAACAAATTTTCCTAATCTTTCTGTTCAAGCGCCATCTAC”, 1.14 RPM ratio (pull-down/input). As for “GATGATTGTTCTCCCAGCTGATGAATTTTCAGAGTCGAGTAAACAAATTTTCCTAATCTTTCTGTTCAAGCGCCATCTAC”, the figure is 0.876 RPM ratio (pull-down/input); as for “GATGATTGTTCTCCCAGCTGATGAATTAAGTAGCTCGAGTAAACAAATTTTCCTAATCTTTCTGTTCAAGCGCCATCTAC”, 0.965 RPM ratio (pull-down/input). For “GATGATTGTTCTCCCAGCTGATGAATTCCAATATTCGAGTAAACAAATTTTCCTAATCTTTCTGTTCAAGCGCCATCTAC”, the binding signal was 0.983 RPM ratio (pull-down/input). As for “GATGATTGTTCTCCCAGCTGATGAATTAGGAGTATCGAGTAAACAAATTTTCCTAATCTTTCTGTTCAAGCGCCATCTAC”, the figure is 1.02 RPM ratio (pull-down/input); as for “GATGATTGTTCTCCCAGCTGATGAATTTCGGACTTCGAGTAAACAAATTTTCCTAATCTTTCTGTTCAAGCGCCATCTAC”, 0.741 RPM ratio (pull-down/input). Take “GATGATTGTTCTCCCAGCTGATGAATTCTTGACTTCGAGTAAACAAATTTTCCTAATCTTTCTGTTCAAGCGCCATCTAC”: the binding signal is 0.876 RPM ratio (pull-down/input). With “GATGATTGTTCTCCCAGCTGATGAATTCTCTGAATCGAGTAAACAAATTTTCCTAATCTTTCTGTTCAAGCGCCATCTAC”, the binding signal was 0.874 RPM ratio (pull-down/input). Then “GATGATTGTTCTCCCAGCTGATGAATTCAAGGCTTCGAGTAAACAAATTTTCCTAATCTTTCTGTTCAAGCGCCATCTAC”, with 0.809 RPM ratio (pull-down/input); and “GATGATTGTTCTCCCAGCTGATGAATTTGCGAACTCGAGTAAACAAATTTTCCTAATCTTTCTGTTCAAGCGCCATCTAC”, with 0.948 RPM ratio (pull-down/input); and “GATGATTGTTCTCCCAGCTGATGAATTAATGTACTCGAGTAAACAAATTTTCCTAATCTTTCTGTTCAAGCGCCATCTAC”, with 1.14 RPM ratio (pull-down/input). Consider “GATGATTGTTCTCCCAGCTGATGAATTCCCCAGGTCGAGTAAACAAATTTTCCTAATCTTTCTGTTCAAGCGCCATCTAC”, for which the binding signal was 0.743 RPM ratio (pull-down/input). For “GATGATTGTTCTCCCAGCTGATGAATTGTGTTCTTCGAGTAAACAAATTTTCCTAATCTTTCTGTTCAAGCGCCATCTAC”, the binding signal was 1.33 RPM ratio (pull-down/input). For “GATGATTGTTCTCCCAGCTGATGAATTAATAACTTCGAGTAAACAAATTTTCCTAATCTTTCTGTTCAAGCGCCATCTAC”, the binding signal was 1.12 RPM ratio (pull-down/input).

Turning to “GATGATTGTTCTCCCAGCTGATGAATTCGTGTCTTCGAGTAAACAAATTTTCCTAATCTTTCTGTTCAAGCGCCATCTAC”, the binding signal is 0.864 RPM ratio (pull-down/input).

As for “GATGATTGTTCTCCCAGCTGATGAATTGGATGATTCGAGTAAACAAATTTTCCTAATCTTTCTGTTCAAGCGCCATCTAC”, the binding signal is 0.976 RPM ratio (pull-down/input). As for “GATGATTGTTCTCCCAGCTGATGAATTCCATGCTTCGAGTAAACAAATTTTCCTAATCTTTCTGTTCAAGCGCCATCTAC”, the binding signal was 0.836 RPM ratio (pull-down/input). Take “GATGATTGTTCTCCCAGCTGATGAATTGTTAGTCTCGAGTAAACAAATTTTCCTAATCTTTCTGTTCAAGCGCCATCTAC”: the binding signal was 1.53 RPM ratio (pull-down/input). Then “GATGATTGTTCTCCCAGCTGATGAATTAGCGCCGTCGAGTAAACAAATTTTCCTAATCTTTCTGTTCAAGCGCCATCTAC”, with 0.813 RPM ratio (pull-down/input). Consider “GATGATTGTTCTCCCAGCTGATGAATTTTGGTGATCGAGTAAACAAATTTTCCTAATCTTTCTGTTCAAGCGCCATCTAC”, for which the binding signal is 1.01 RPM ratio (pull-down/input). “GATGATTGTTCTCCCAGCTGATGAATTGGAGGTCTCGAGTAAACAAATTTTCCTAATCTTTCTGTTCAAGCGCCATCTAC”: the binding signal is 0.723 RPM ratio (pull-down/input). For “GATGATTGTTCTCCCAGCTGATGAATTGCGACACTCGAGTAAACAAATTTTCCTAATCTTTCTGTTCAAGCGCCATCTAC”, the binding signal is 1.08 RPM ratio (pull-down/input).

Regarding “GATGATTGTTCTCCCAGCTGATGAATTACGTACGTCGAGTAAACAAATTTTCCTAATCTTTCTGTTCAAGCGCCATCTAC”, the binding signal is 1.07 RPM ratio (pull-down/input). As for “GATGATTGTTCTCCCAGCTGATGAATTTGCCCTGTCGAGTAAACAAATTTTCCTAATCTTTCTGTTCAAGCGCCATCTAC”, the figure is 0.858 RPM ratio (pull-down/input); as for “GATGATTGTTCTCCCAGCTGATGAATTACCAGCATCGAGTAAACAAATTTTCCTAATCTTTCTGTTCAAGCGCCATCTAC”, 1.1 RPM ratio (pull-down/input); as for “GATGATTGTTCTCCCAGCTGATGAATTAAGAACTTCGAGTAAACAAATTTTCCTAATCTTTCTGTTCAAGCGCCATCTAC”, 0.846 RPM ratio (pull-down/input). On to “GATGATTGTTCTCCCAGCTGATGAATTCACGCCGTCGAGTAAACAAATTTTCCTAATCTTTCTGTTCAAGCGCCATCTAC”, for which the binding signal is 0.904 RPM ratio (pull-down/input). “GATGATTGTTCTCCCAGCTGATGAATTTACTAATTCGAGTAAACAAATTTTCCTAATCTTTCTGTTCAAGCGCCATCTAC”: the binding signal is 1.52 RPM ratio (pull-down/input). In the case of “GATGATTGTTCTCCCAGCTGATGAATTCTGTGAGTCGAGTAAACAAATTTTCCTAATCTTTCTGTTCAAGCGCCATCTAC”, the binding signal was 0.863 RPM ratio (pull-down/input).
